The values below come from PMC4336329 (PLoS ONE, 2015).

Out of some 310,000 compounds screened, about 14,000 (4.5%) showed an effect of 50% or more. The effect is printed as a negative number. The list shows a part of the results.
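Further: peak tail current of the secondary pulse compared with the same well before compound.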

In the test the target is human ether-à-go-go-related gene (hERG) potassium channel (human, UniProt Q12809). The test is described as follows: primary screen, population patch clamp on CHO cells stably expressing hERG.
Chain of human ether-à-go-go-related gene (hERG) potassium channel (Q12809 whole entry, looked up): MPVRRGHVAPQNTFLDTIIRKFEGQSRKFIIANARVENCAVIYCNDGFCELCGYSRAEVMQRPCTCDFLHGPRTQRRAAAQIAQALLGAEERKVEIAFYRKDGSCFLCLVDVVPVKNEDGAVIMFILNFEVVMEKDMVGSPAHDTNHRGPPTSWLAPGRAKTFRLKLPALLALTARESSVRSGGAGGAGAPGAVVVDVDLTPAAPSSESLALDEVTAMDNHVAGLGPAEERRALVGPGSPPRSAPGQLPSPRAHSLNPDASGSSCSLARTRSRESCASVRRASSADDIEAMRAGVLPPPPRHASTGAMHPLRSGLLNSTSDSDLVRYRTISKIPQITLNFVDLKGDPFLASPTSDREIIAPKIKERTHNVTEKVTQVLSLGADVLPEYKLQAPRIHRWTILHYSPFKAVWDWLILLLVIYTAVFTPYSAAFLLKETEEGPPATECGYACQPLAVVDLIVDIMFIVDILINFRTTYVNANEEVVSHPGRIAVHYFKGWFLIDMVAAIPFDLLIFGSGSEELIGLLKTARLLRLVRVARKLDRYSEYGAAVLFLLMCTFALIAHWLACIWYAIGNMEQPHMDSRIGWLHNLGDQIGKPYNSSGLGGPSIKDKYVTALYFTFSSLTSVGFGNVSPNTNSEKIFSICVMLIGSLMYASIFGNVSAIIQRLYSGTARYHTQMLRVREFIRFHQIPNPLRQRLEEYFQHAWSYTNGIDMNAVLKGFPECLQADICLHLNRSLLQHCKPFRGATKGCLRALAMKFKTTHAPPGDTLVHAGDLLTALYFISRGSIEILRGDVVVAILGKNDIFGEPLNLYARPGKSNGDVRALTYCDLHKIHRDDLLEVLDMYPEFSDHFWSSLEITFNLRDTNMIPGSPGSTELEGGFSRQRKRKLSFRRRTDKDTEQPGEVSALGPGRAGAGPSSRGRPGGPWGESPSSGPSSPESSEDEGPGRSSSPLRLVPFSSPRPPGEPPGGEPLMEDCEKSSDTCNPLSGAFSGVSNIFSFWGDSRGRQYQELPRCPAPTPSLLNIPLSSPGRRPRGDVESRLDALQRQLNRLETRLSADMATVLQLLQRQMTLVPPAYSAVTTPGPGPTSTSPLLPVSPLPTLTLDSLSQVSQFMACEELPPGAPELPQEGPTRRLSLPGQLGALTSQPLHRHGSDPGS
As for `COc1ccc(Oc2ncnc3sccc23)cc1`, the “hERG current change (%, negative = inhibition) at 10uM” value was 1.8%.
Turning to `CCOC(=O)c1c(NC(=O)COC(=O)c2ncc(Cl)c(Cl)c2Cl)sc(C(=O)N(C)C)c1C`, the “hERG current change (%, negative = inhibition) at 10uM” value is on record as -5.82%.
The result for `COc1ccc(S(=O)(=O)Cc2ccc(C(=O)NCCc3cc(OC)ccc3OC)o2)cc1` reads -39.6%; that for `c1ccc(Oc2cc(-c3ccccc3)nc(-c3ccccc3)n2)cc1`, 3.68%.
The result for `CC(C)[C@@H](C(=O)N1CCCC1)N1C(=O)N2CCc3c([nH]c4ccccc34)[C@@]2(C)C1=O` reads -6.38%.
With `CC(C#N)(NC(=O)CN1CCN(S(=O)(=O)c2ccccc2Cl)CC1)C1CC1` (centres unmarked) the figure was 5.18%; with `CN(CC(=O)NCc1ccc(F)cc1)Cc1cccc(Cl)c1`, 4.92%.
As for `CCOC(=O)c1ccccc1Nc1cc(C)nc2nc(C)nn12`, the “hERG current change (%, negative = inhibition) at 10uM” value is on record as -15.9%.
Turning to `O=C(c1ccc(NS(=O)(=O)c2ccc(F)cc2)cc1)N1CCCCC1`, the “hERG current change (%, negative = inhibition) at 10uM” value is -6.5%.
With `O=[N+]([O-])c1cc2c(c(CSc3nnnn3-c3ccc(O)cc3)c1)OCOC2` the figure was -15.8%; with `CC(=O)Nc1ccc(NC(=O)C(C)OC(=O)c2cc(S(=O)(=O)N(C)C)ccc2N2CCCC2)cc1` (centres unmarked), 0.785%; with `CCOC(=O)C1CCN(C(=O)COC(=O)COc2ccccc2OC)CC1`, 11.9%.
Consider `CN1CCN(c2oc(-c3ccccc3Cl)nc2S(=O)(=O)c2ccccc2)CC1`, for which the “hERG current change (%, negative = inhibition) at 10uM” value is recorded as -47.9%.
The result for `N#Cc1ccc(NCC(=O)Nc2ccc(S(=O)(=O)N3CCCCC3)cc2)cc1` reads -2.03%; that for `COC(=O)c1ccc(C(=O)OC)c(NC(=S)N2CCC(C(N)=O)CC2)c1`, 8.81%.
Take `O=C(NCCOc1ccccc1)c1cncc(Br)c1`: the “hERG current change (%, negative = inhibition) at 10uM” value is on record as -26.8%.
In the case of `Clc1ccc(SCCOCCN2CCCCC2)cc1.O=C(O)C(=O)O`, the “hERG current change (%, negative = inhibition) at 10uM” value was -82%.
Turning to `CC(=O)c1cc(C#N)c(SCC(=O)OC(C)(C)C)nc1C`, the “hERG current change (%, negative = inhibition) at 10uM” value came out at 2.25%.
Take `COc1ccccc1C(c1nnnn1CC1CCCO1)N1CCC(C(N)=O)CC1.Cl` (centres unmarked): the “hERG current change (%, negative = inhibition) at 10uM” value was 0.321%.
Consider `O=C(Nc1ccccc1C(=O)NC1CC1)c1ccccc1`, for which the “hERG current change (%, negative = inhibition) at 10uM” value is reported as 12.9%.
In the case of `O=C(N/N=C\c1cc2c(cc1Cl)OCO2)c1cccs1`, the “hERG current change (%, negative = inhibition) at 10uM” value was found to be 17.5%.
Regarding `O=C(NCc1ccco1)C(C(=O)c1ccccc1)n1ccccc1=O` (centres unmarked), the “hERG current change (%, negative = inhibition) at 10uM” value is 16.5%.
As to `Cn1c(SCc2c(Cl)cccc2Cl)nnc1-c1cccs1`, the “hERG current change (%, negative = inhibition) at 10uM” value is given as -49.6%.
Regarding `CC(C)N(Cc1ccccc1)C(=O)COC(=O)CCC(=O)c1ccc(F)cc1`, the “hERG current change (%, negative = inhibition) at 10uM” value was -37%.
As to `CCc1nnc(NS(=O)(=O)c2ccc(Nc3ccc([N+](=O)[O-])c4nonc34)cc2)s1`, the “hERG current change (%, negative = inhibition) at 10uM” value turned out to be 46.6%.
As for `COc1cccc(C(C(=O)NC2CCCCC2)N(C(=O)Cc2cccs2)c2ccc(-n3cnnn3)c(OC)c2)c1` (centres unmarked), the “hERG current change (%, negative = inhibition) at 10uM” value is recorded as -8.74%.
With `Cn1c(=O)c2c(SCC(=O)NCC3CCCO3)nc(CC(C)(C)C)nc2n(C)c1=O` (centres unmarked), the “hERG current change (%, negative = inhibition) at 10uM” value is listed as -28.1%.
In the case of `CCS(=O)(=O)N1CCN=C1SCc1cccc(F)c1`, the “hERG current change (%, negative = inhibition) at 10uM” value was determined as 14.7%.
Turning to `CCN(CC(=O)Nc1cccc(C(C)=O)c1)S(=O)(=O)c1ccccc1`, the “hERG current change (%, negative = inhibition) at 10uM” value is listed as -12.1%.
In the case of `c1ccc([C@H]2CC3C[C@@H](c4ccccc4)N2O3)cc1`, the “hERG current change (%, negative = inhibition) at 10uM” value came out at 1.62%.
Regarding `Cl.Nc1ccc(Oc2cc(N)cc(Oc3ccccc3)c2)cc1`, the “hERG current change (%, negative = inhibition) at 10uM” value was found to be 11.6%.
For `CC(C)c1ccc(NC(=O)COc2ccccn2)cc1`, the “hERG current change (%, negative = inhibition) at 10uM” value turned out to be 7.69%.
For `CNC(=O)C(=O)NCC1OCCN1S(=O)(=O)c1ccc(C)cc1` (centres unmarked), the “hERG current change (%, negative = inhibition) at 10uM” value is 13.8%.
Take `Clc1ccc(C(c2nnnn2C2CCCC2)N2CCN(Cc3ccncc3)CC2)cc1` (centres unmarked): the “hERG current change (%, negative = inhibition) at 10uM” value is recorded as -71.7%.
As for `N#CC1=C(N)OC2=C(CN(Cc3ccccc3)C/C2=C\c2cccnc2)C1c1cccnc1` (centres unmarked), the “hERG current change (%, negative = inhibition) at 10uM” value was -1.44%.
On to `COc1ccc(C)c2sc(NNC(=O)COc3ccccc3)nc12`, for which the “hERG current change (%, negative = inhibition) at 10uM” value amounted to 6.35%.
Regarding `CCN1CCC2(CC1)N=C(c1ccc(F)cc1)C(=S)N2C(=O)c1ccc(C)cc1`, the “hERG current change (%, negative = inhibition) at 10uM” value is -39%.
For the compound `CCC(=O)Nc1ccc2c(c1)C(=O)c1ccccc1C2=O`, the “hERG current change (%, negative = inhibition) at 10uM” value is -0.653%.
With `C=CCn1cccc(C(=O)Nc2ccc(SC)cc2)c1=O`, the “hERG current change (%, negative = inhibition) at 10uM” value was -15%.
For `Cn1ncc(Cl)c1C(=O)N1CCN(S(=O)(=O)c2cccs2)CC1`, the “hERG current change (%, negative = inhibition) at 10uM” value is 2.71%.
Consider `Cc1ccccc1NC(=O)c1cccc(NC(=O)CCC(=O)O)c1`, for which the “hERG current change (%, negative = inhibition) at 10uM” value turned out to be 6.69%.
For `O=C(NCCc1ccccc1)C1CCC(=O)N(Cc2ccc(Cl)cc2)C1` (centres unmarked), the “hERG current change (%, negative = inhibition) at 10uM” value is given as -20.5%.
Take `O=C(CC(C(=O)O)c1ccccc1)c1cccs1` (centres unmarked): the “hERG current change (%, negative = inhibition) at 10uM” value is on record as 5.8%.
As for `CCOc1ccc(CN2CCN(C(=O)c3ccco3)CC2)cc1.O=C(O)C(=O)O`, the “hERG current change (%, negative = inhibition) at 10uM” value was -26.8%.
In the case of `COc1ccc(CCNC(=O)c2cccnc2SC)cc1`, the “hERG current change (%, negative = inhibition) at 10uM” value is listed as 3.68%.
`COCCN(CCOC)C(=O)c1cc2sc3ccccc3c2s1`: the “hERG current change (%, negative = inhibition) at 10uM” value is -70.6%.
On to `O=S(=O)(c1ccc(F)cc1)N1CCN(CC(O)COCc2cccs2)CC1` (centres unmarked), for which the “hERG current change (%, negative = inhibition) at 10uM” value is on record as -18.5%.
As to `CCNC(=O)C(=O)Nc1cc2c3c(c1)CCN3C(=O)CC2`, the “hERG current change (%, negative = inhibition) at 10uM” value stood at 15.6%.
Take `Cc1cccc(NC(=O)CCc2c(C)nn(-c3ccc(N4CCOCC4)nn3)c2C)c1`: the “hERG current change (%, negative = inhibition) at 10uM” value stood at 3.98%.
For `CC(=O)N1CCC2(CC1)CC(=O)c1cc(OCC(=O)N3CCOCC3)ccc1O2`, the “hERG current change (%, negative = inhibition) at 10uM” value is -10.6%.
With `O=C(Nc1cccc(Cl)c1)c1cc(S(=O)(=O)N2CCOCC2)cs1`, the “hERG current change (%, negative = inhibition) at 10uM” value is 8.09%.
With `Cn1cccc1C(=O)NS(=O)(=O)c1ccccc1Cl` the figure was 5.14%; with `CCC(C(=O)NCc1ccco1)N(C(=O)CNS(=O)(=O)c1ccccc1)c1ccc(F)cc1` (centres unmarked), -7.57%; with `CCn1c(C)nc2cc(C(=O)NNC(=S)Nc3ccc(C)cc3)ccc21`, 14.6%.
With `Cc1nc2c(sc3nc4c(cc32)COC(C)(C)C4)c(=O)o1` the figure was -18.1%.
With `O=C1Nc2cc(C(=O)NCCCN3CCOCC3)ccc2S/C1=C/c1ccccc1F`, the “hERG current change (%, negative = inhibition) at 10uM” value is recorded as -29.8%.
Regarding `Cc1nn(C)c(C)c1/C=C1/CC2C3CC=C4CC(O)CCC4(C)C3CCC2(C)C1=O` (centres unmarked), the “hERG current change (%, negative = inhibition) at 10uM” value is recorded as -8.03%.
For `NC(=O)c1ccc(NC(=O)COC(=O)C2(c3ccccc3F)CCCC2)cc1`, the “hERG current change (%, negative = inhibition) at 10uM” value is listed as -23.3%.
The result for `Cc1cc(C)c2[nH]c(=O)c(CN(Cc3cccnc3)C(=S)NCCCN(C)C)cc2c1` reads -35.6%; that for `O=S(=O)(c1cccc(-c2nc3n(n2)Cc2ccccc2-3)c1)N1CCCC1`, 8.12%.
With `CSCC[C@H](NC(=O)N1CCn2c1nc1ccccc12)C(=O)NC1CCCCC1`, the “hERG current change (%, negative = inhibition) at 10uM” value is given as -18.2%.
Take `COc1ccc2nc(C(F)(F)Cl)c(C#N)c(N)c2c1`: the “hERG current change (%, negative = inhibition) at 10uM” value was -0.991%.
With `Cc1cc(C)c(C#N)c(Nc2cccc(C)c2C)n1` the figure was 15.9%; with `COc1ccc(N2CCN(Cc3cc(OC)c(O)c([N+](=O)[O-])c3)CC2)cc1`, -5.68%.
With `Cc1cc(C(=O)CSc2nnc(Nc3ccccc3)s2)c(C)n1CC1CCCO1` (centres unmarked) the figure was -18.2%.
In the case of `CN1CCN(c2cc(=O)n(-c3ccc(Cl)cc3)c(=O)[nH]2)CC1`, the “hERG current change (%, negative = inhibition) at 10uM” value stood at 11.1%.
In the case of `CS(=O)(=O)c1ccc2nc(NC(=O)c3cccc(NS(=O)(=O)c4ccc(F)c(F)c4)c3)sc2c1`, the “hERG current change (%, negative = inhibition) at 10uM” value is given as -10.3%.
The result for `Cc1ccc(C(=O)/C=C/c2ccc(-c3ccccc3[N+](=O)[O-])o2)cc1` reads 12.5%; that for `O=C(O)c1ccc(/C=N/O)cc1`, -1.95%; that for `CCOc1ccc(C(=O)N2CCN(c3cnn(-c4ccccc4)c(=O)c3Cl)CC2)cc1`, -77.8%.
For the compound `O=C1C=C(c2ccccc2)C(=O)N1Nc1ccccc1`, the “hERG current change (%, negative = inhibition) at 10uM” value is -77.2%.
For `CC(OC(=O)Cn1[nH]c(=O)c2ccccc2c1=O)C(=O)Nc1ccccc1[N+](=O)[O-]` (centres unmarked), the “hERG current change (%, negative = inhibition) at 10uM” value is given as 6.32%.
For `O=C(Cn1nnc2ccccc21)c1ccc([N+](=O)[O-])cc1`, the “hERG current change (%, negative = inhibition) at 10uM” value is -32.9%.
As to `COCCNC(=S)N(CCc1c(C)[nH]c2ccc(C)cc12)Cc1cccnc1`, the “hERG current change (%, negative = inhibition) at 10uM” value was -7.49%.
For `C=CCOn1c(=O)c(C)[n+]([O-])c2ccccc21`, the “hERG current change (%, negative = inhibition) at 10uM” value is recorded as 5.15%.
With `CCN(C(=O)COC(=O)c1cccc(S(=O)(=O)N(CC)CC)c1)C1CCS(=O)(=O)C1` (centres unmarked) the figure was 10.3%.
The result for `CCOC(=O)c1c(C)n(OC)c2ccc3c(no[n+]3[O-])c12` reads -1.2%; that for `Cc1ccc(C2(C)NC(=O)N(CC(=O)NCc3cccc(Cl)c3)C2=O)cc1` (centres unmarked), -7.12%.
As for `O=C(Nc1ccccc1N1CCCC1)c1cccc(F)c1`, the “hERG current change (%, negative = inhibition) at 10uM” value turned out to be 6.24%.
Consider `O=C(Nc1ccc(Cl)cc1)C1CCN(C(=O)NC2CCCCC2)CC1`, for which the “hERG current change (%, negative = inhibition) at 10uM” value was 3.65%.
The result for `Cc1ccc(O)c(Nc2ncnc3ccc([N+](=O)[O-])cc23)c1.Cl` reads 13.6%.
`O=C(C1CCN(c2ccc(N3CCOCC3)nn2)CC1)N1CCc2ccccc2C1`: the “hERG current change (%, negative = inhibition) at 10uM” value was -18.5%.
For the compound `O=C(c1cc(F)c(F)cc1Cl)N1CCCCC1`, the “hERG current change (%, negative = inhibition) at 10uM” value was -27.5%.
As for `CC1=CC2=NC(=O)CC(C)(C(=O)N(CC(=O)NC(C)(C)C)Cc3ccccc3)N2C=C1` (centres unmarked), the “hERG current change (%, negative = inhibition) at 10uM” value was 29.8%.
For the compound `COc1cc(/C=C(\C#N)C(=O)N2CCc3ccccc32)ccc1O`, the “hERG current change (%, negative = inhibition) at 10uM” value is -28.9%.
With `Nn1c(SCC(=O)Nc2ccccc2F)nnc1-c1cccnc1`, the “hERG current change (%, negative = inhibition) at 10uM” value is given as 28.5%.
